Measured values published in PubChem BioAssay AID1508624 (National Center for Advancing Translational Sciences (NCATS), 2021).
Out of some 48,000 compounds screened, about 120 (0.25%) were called active. Another 4% or so got no clear call; they are omitted. Calls come from the whole dose curve; as a rule, active = well fitted activation curve with a large enough effect; inconclusive = small, poorly fitted or top-dose-only effect, or another doubt; inactive = no such curve, though single readings can be large or run the other way. The list shows a part of the results.

Assay: Primary qHTS for Identification of Small Molecule Activators of Huntingtin-Antisense Promoter Activity; note: nearly all actives have a fitted effect of over 55% in size
Conditions: HEK293 HTT-AS promoter firefly luciferase reporter, 24 h; series mostly up to 57.5 µM; activity change, positive = activation: at the top concentration
How it was run: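 Firefly luciferase signal from promoter-reporter HEK293 cells was scaled between vehicle (0%) and zero RLU (-100%). Compounds were tested at final concentrations of up to 57.5 uM over 24 h at 37 degrees C. PTC124 at 50 uM final served as control inhibitor.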

Activity change, positive = activation, inactive:
CC1CCCN(C(=O)c2cc3c(=O)n(C)c4ccccc4c3s2)C1 (centres undefined) -0.762%
COc1ccc(C2C(C(N)=O)=C(C)Nc3nc(SCc4ccccc4Cl)nn32)cc1OC (centres undefined) -18%
CCOc1ccc(C(=O)NCc2nc3cccnc3n2Cc2ccc(F)cc2)cc1OCC -11.8%
Cc1ccc(CNC(=O)c2nc(SCc3ccccc3F)ncc2Cl)cc1 -20.2%
CCOC(=O)c1ccccc1NC(=O)CSc1nc2ccncc2[nH]1 -19.1%
O=C(NCc1ccco1)c1ccc(Cn2c(SCc3ccc(F)cc3)nc3cccnc32)cc1 -0.514%
CCOC(=O)c1ccc(N2C(=O)c3n[nH]c(C)c3C2c2cccc(Br)c2)cc1 (centres undefined) -68.7%
COc1ccc(CNC(=O)Cn2nnc(-c3ccc(C(F)(F)F)cc3)n2)cc1 28.3%
COc1ccc(C(=O)c2cn(Cc3ccccc3F)c3cc4c(cc3c2=O)OCO4)cc1 -24.2%
O=c1cc(-c2ccccc2)n2c(SCc3ccc(Cl)cc3)nnc2[nH]1 8.1%
COc1ccc(-n2c3c(cc(-c4nc(-c5ccc(C)cc5)cs4)c2=O)C(=O)CC(C)(C)C3)cc1 -4.92%
CC(C)C(=O)NCC(c1ccc2c(c1)OCO2)N1CCN(c2ccccc2F)CC1 (centres undefined) -20.5%
COc1ccccc1C(=O)Nc1ccc2oc(-c3cccc(Cl)c3Cl)nc2c1 1.06%
NCc1nc2cccnc2n1Cc1ccccc1Cl -5.43%
COc1ccccc1CNC(=O)CCc1c(C)nn(-c2ccc(N3CCOCC3)nn2)c1C -6.03%
COc1ccc(NC(=O)CSc2nc3c([nH]c4ccccc43)c(=O)n2-c2ccccc2)c(OC)c1 -33%
O=C(NCc1ccco1)c1ccc2c(c1)N(Cc1ccccc1)C(=O)c1ccccc1S2(=O)=O -15.1%
COCCNc1ncnc2c1c(-c1ccccc1)cn2-c1ccc(C)c(Cl)c1 -19.5%
COc1ccc(-n2ncc3c(NC(C)(C)CO)ncnc32)cc1 -10.4%
CCOc1ccc(NC(=O)Cn2c3ncccc3c(=O)n2-c2ccc(CC)cc2)cc1 -8.77%
CCN(CC)S(=O)(=O)c1ccc(NC(=O)NCc2noc3ccc(C)cc23)cc1 -24.2%
Cc1ccc(CNC(=O)c2oc3c(c2C)-c2nn(Cc4ccc(Cl)cc4)cc2CC3)cc1 -33%
Cc1cc(S(=O)(=O)C(CNC(=O)c2ccc(OC(C)C)cc2)c2cccs2)ccc1F (centres undefined) -38.2%
CCOC(=O)CNc1nc(Oc2ccc(=O)n(C)n2)nc(N(CC)CC)n1 -26.9%
COc1ccc(N2CCN(Cc3nc4c(c(=O)[nH]c(=O)n4C)n3Cc3ccc(Cl)cc3)CC2)cc1 -21.5%
Cc1cccc(-c2nc(SCC(=O)N3CCc4ccccc43)c3c(=O)n(C)c(=O)n(C)c3n2)c1 -2.59%
CCC(=O)Nc1cc(-c2cccc(C)c2)nn1-c1ccccc1 17.9%
COc1cccc2c1ncc1c(-c3ccc(C)cc3)nn(-c3cccc([N+](=O)[O-])c3)c12 -17.7%
Cc1cccc(-c2nnc(SCc3cc(=O)c4cccc(Cl)c4[nH]3)n2C)c1 -37.9%
CCOc1ccc(-n2c(SCC(=O)N3CCc4ccccc43)nc3c([nH]c4ccccc43)c2=O)cc1 -9.73%
COc1ccc(NC(=O)Cn2c(=O)c(-c3cc(C)ccc3NC(C)=O)nc3ccccc32)c(OC)c1 -4.6%
Cc1cc(C)cc(NC(=O)C(=O)NCC(c2ccc3c(c2)OCO3)N2CCN(C)CC2)c1 (centres undefined) 13%
COc1ccc(NC(=O)N(CCC(C)C)C(C)c2cccs2)c(OC)c1 (centres undefined) -21.5%
O=C(COc1ccccc1)NCc1ccc2c(c1)CCN2C(=O)c1ccc(Cl)cc1 -1.1%
Cc1ccc(C2CCN(C(=O)c3cnn(-c4cccc(Cl)c4)c3C3CCN(C(=O)OC(C)(C)C)CC3)C2)cc1 (centres undefined) -43%
Cc1cc(=O)[nH]c2nnc(SCC(=O)Nc3ccc(OC(F)(F)F)cc3)n12 0.493%
COc1ccc(OC)c(NC(=O)c2cc(-c3ccc(Cl)s3)nc3ccccc23)c1 -4.97%
Cc1c(Cl)cccc1NC(=O)CSc1ncc2c(n1)-c1ccccc1N(C)S2(=O)=O -14.8%
COC(=O)c1c(NC(=O)c2cc3ccccc3c(=O)o2)sc2c1CCCC2 5.61%
Cc1cccc(C)c1OCC(=O)Nc1ncn[nH]1 9.41% [at 11.5 µM, percent change from vehicle, -100% = no light]
CCN(CC)CCNC(=O)c1c(C)oc2ncnc(N3CCOCC3)c12 -0.402%
CCOc1ccc(CCNC(=O)c2cnc3sc(N(CC)CC)nn3c2=O)cc1OCC -17.1%
Cc1cc(C)c(NC(=O)Cn2cc(S(=O)(=O)Cc3ccccc3F)c3ccccc32)c(C)c1 -25.3%
COc1ccccc1NC(=O)N(Cc1nnc2n1CCCCC2)c1ccc(F)cc1 -10.4%
COc1ccc(CCNC(=O)c2ccc(Nc3nc4ccccc4n4nnnc34)cc2)cc1OC -30.9%
CC(=O)c1cccc(NC(=O)C(C)n2c(=O)cc(C)c3c(C)nn(-c4ccccc4)c32)c1 (centres undefined) -15.4%
COc1ccc(OC)c(CNS(=O)(=O)c2ccc3c(c2)CCCN3C(C)=O)c1 -22%
O=C(NCCc1ccccc1)c1ccc2c(c1)N(Cc1ccc(F)cc1)C(=O)c1ccccc1S2(=O)=O -16.6%
Cc1cccc(N(CC(O)Cn2c3ccccc3c3ccccc32)S(=O)(=O)c2ccc(F)cc2)c1 (centres undefined) -57%
CC(C)c1ccc(NC(=O)c2cc3sc(Cl)cc3n2C)cc1 5.24%
Cc1ccccc1S(=O)Cc1ccc(C(=O)N2CCN(c3cccc(C)c3C)CC2)o1 (centres undefined) -47%
Cc1ccc(-c2c(CN3CCN(c4cccc(C)c4)C(C)C3)csc2C)cc1 (centres undefined) -19.8%
Cc1ccc2onc(CC(=O)N3CCN(c4ccc(F)cc4)CC3)c2c1 -12.4%
CC(C)CC(=O)N1c2nc(C(C)C)nn2C2(CCCCC2)[C@@H]2CCCC[C@@H]21 -10.3%
CCOC(=O)c1[nH]c2c(c1Cc1ccccc1C)C(=O)CC(c1cc(OC)ccc1OC)C2 (centres undefined) -30.2%
CN1C(=O)Cc2cc(S(=O)(=O)N3CCN(c4ccc(Cl)cc4)CC3)ccc21 -20.5%
CCOc1ccc(OCC)c(NC(=O)C2CCN(S(=O)(=O)c3c(C)noc3/C=C/c3ccccc3F)CC2)c1 17.9%
O=C(c1ccc2c(c1)OCCO2)N(Cc1cccnc1)c1nc2c(Cl)cccc2s1 -36.9%
COc1cccc(Cn2c(CNS(=O)(=O)c3ccc(F)c(Cl)c3)nc3cccnc32)c1 -19.7%
